Laboratory results taken from the BET-seq Pho4 binding data (Le et al. 2018).
This is one part of the list. The energies were worked out here from pooled read counts, against the library average; single values are noisy.

Molecular target: T1, Pho4 (S. cerevisiae) (UniProt P07270)
T1 sequence: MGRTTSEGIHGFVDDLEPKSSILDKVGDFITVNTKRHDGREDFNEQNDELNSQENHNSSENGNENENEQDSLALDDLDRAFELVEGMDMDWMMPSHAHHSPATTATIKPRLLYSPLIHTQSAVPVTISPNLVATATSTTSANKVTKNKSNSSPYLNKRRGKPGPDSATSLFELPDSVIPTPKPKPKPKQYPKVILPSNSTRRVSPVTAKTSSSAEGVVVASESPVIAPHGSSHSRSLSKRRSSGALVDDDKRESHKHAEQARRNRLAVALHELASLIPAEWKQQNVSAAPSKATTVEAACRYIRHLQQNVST
Experiment: relative binding free energy (BET-seq); higher = weaker binding
Settings: reference: library average

Sequence	relative binding free energy [kcal/mol]
GAGAACACGTGAGTGG	0.31
GTTGTCACGTGGCTTT	0.07
GTTCGCACGTGGCTGT	-0.18
AGGGTCACGTGCTATG	0
ATATTCACGTGTGCTG	0.06
TGCAACACGTGGGATT	-0.02
GTTCGCACGTGTATGT	0.2
AGTGTCACGTGTGAAT	0.05
ATGGGCACGTGCCGTG	-0.23
GGGGCCACGTGGGGTC	-0.1
TTGTGCACGTGAGGCA	0.17
AGATGCACGTGTTGGA	-0.06
TGATTCACGTGAGTCG	0.41
AACGGCACGTGAAGGG	0.28
TTGGTCACGTGCATGC	0
TAATGCACGTGGGAGT	-0.12
TGGATCACGTGAGGTA	0.36
TCTGTCACGTGTTTCG	0.09
GTTTTCACGTGACATG	0.27
GTAGGCACGTGGAGTA	-0.1
TTTCTCACGTGGGTTT	0.19
ATGACCACGTGTGGGT	-0.02
TGTTGCACGTGTTACT	0.02

Sequence	relative binding free energy [kcal/mol]
TAGATCACGTGCTGTG	-0.07
TGGTTCACGTGCTGGG	0.28
TATTGCACGTGTCGGA	0.01
TATATCACGTGTTTAA	0.16
CATAACACGTGTGTTT	0.1
AGAGGCACGTGGGAAT	-0.12
GTAGCCACGTGATTTG	0.21
TGTAACACGTGGTCAA	0.05
GGATTCACGTGGTATG	0.25
TTGGCCACGTGTGGGG	0.01
TGGAACACGTGTGTTT	0.01
AGGTTCACGTGTGAGC	0.24
GATGTCACGTGAATAT	0.44
GGTGGCACGTGGTTTG	-0.06
GGGTTCACGTGGACGT	0.33
GTGTACACGTGCTGTT	-0.01
ATAAACACGTGTTATA	0.15
CAGTTCACGTGTAAGT	0.39
GGAAACACGTGGGTAT	0.04
TGCTGCACGTGAGGCG	0
TCCTTCACGTGTTTTT	0.44
TATGACACGTGGGTGT	-0.13
TATGTCACGTGGGACT	0.04

Sequence	relative binding free energy [kcal/mol]
ACGTTCACGTGAGAGT	0.4
TTGGACACGTGGGTGC	-0.07
TGCGGCACGTGGTTTC	-0.11
CAGGCCACGTGTAGGT	-0.06
AGAATCACGTGAGTAT	0.36
TATTGCACGTGAGTAT	0.18
TATTACACGTGTTGTG	-0.03
GGTGGCACGTGGAAGA	-0.03
GGGCTCACGTGAGGAA	0.57
TTTAGCACGTGAATGA	0.24
GTCTTCACGTGTTGTT	0.23
TTTCGCACGTGTAGTT	0.06
TAGTTCACGTGGGGAG	0.26
CAATTCACGTGGGTTG	0.09
TGTTCCACGTGGTTAT	0.05
TGTGGCACGTGCGTAC	-0.2
GGCGCCACGTGGGGGG	-0.24
GGTTACACGTGACTTG	0.24
CTGGGCACGTGTGTGT	0.04
GGCGTCACGTGCTTTT	0.12
CATTTCACGTGTGTAG	0.32
GAGTGCACGTGTATAG	0.03
AGGTACACGTGGGATG	-0.17

Sequence	relative binding free energy [kcal/mol]
GGTTGCACGTGAACGG	0.28
TGGGGCACGTGCTTCT	-0.19
GTTTGCACGTGTATGT	0.15
ACATTCACGTGTTTTT	0.28
ACTTTCACGTGTGGAG	0.31
AGGAGCACGTGAGTAT	0.2
AGATGCACGTGCGTGG	-0.18
TCTTTCACGTGTTCGG	0.17
AGTCCCACGTGGGTTG	-0.23
TTTAGCACGTGTTCTT	-0.06
TTTGGCACGTGCGCGT	-0.19
ATGTTCACGTGGGACG	0.24
ATGTTCACGTGGATAT	0.23
GACTTCACGTGTTTGG	0.25
TGATACACGTGTTGTC	0.15
TATTCCACGTGCGGTG	0.06
CCTGGCACGTGTGAGG	-0.06
TGTCACACGTGGGCGA	0.03
TTGGGCACGTGCTTCT	-0.07
TAAAACACGTGTAGTG	0.05
AGGAGCACGTGTGAGT	0
GTGATCACGTGAGGCT	0.24
AATTGCACGTGGGGAG	-0.1

Sequence	relative binding free energy [kcal/mol]
CGTTACACGTGTTGAG	0.2
TTCGGCACGTGACGTG	0
ATTGACACGTGAGGTA	0.06
TGAAGCACGTGGACTG	-0.07
GATGGCACGTGTGATA	0.19
TGTCGCACGTGCGATG	-0.05
GATGGCACGTGTGCTG	-0.09
TGGTTCACGTGTGTCG	0.29
GAATTCACGTGAACGT	0.57
GGTAGCACGTGGAGTG	-0.04
GGTCACACGTGTGAAG	0.23
AGTTACACGTGTTCGA	0.13
CTCGTCACGTGTAAGT	0.24
TAAGCCACGTGGGTAT	-0.12
GATGGCACGTGGTTCT	-0.2
TTGGGCACGTGTGCAG	-0.19
ATTGGCACGTGTTCTT	-0.03
ATGTTCACGTGAGGGT	0.35
CAGTCCACGTGGGGGG	-0.11
CTTAACACGTGTTGGG	0.02
TGTACCACGTGGAGAG	0
GAAGGCACGTGATGTA	0.11
TGGCTCACGTGATGGG	0.23
